Reference: PubChem BioAssay AID686979 (National Center for Advancing Translational Sciences (NCATS), 2013)
About 50,000 (12%) of roughly 420,000 compounds were called active. This list was built around the results that the source calls inconclusive (neither active nor inactive); the mix of calls is not that of the screen. Calls come from the whole dose curve; as a rule, active = well fitted inhibition curve with a large enough effect; inconclusive = small, poorly fitted or top-dose-only effect; inactive = flat fitted curve, though single readings scatter. No potency is given beside an inconclusive call; the fits are too rough.

experiment: qHTS for Inhibitors of human tyrosyl-DNA phosphodiesterase 1 (TDP1): qHTS in cells in presence of CPT; conditions: chicken DT40 Tdp1-/-;hTDP1 cells + 20 nM CPT, ATP luminescence, 48 h; activity change, negative = growth inhibition: at 46.2 µM (top of the series) unless noted; note: nearly all actives have a fitted effect of over 55% in size
Procedure, shortened: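 Chicken DT40 Tdp1-/- cells complemented with human TDP1, 400 cells/well, exposed to compounds plus 20 nM camptothecin for at least 48 h at 37 C; viability read as ATP content by CellTiter-Glo luminescence.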
% is set by controls: 0 for no effect and ±100 for the full control effect; potency is the fitted concentration of half-maximal effect; tags give direction and shape of the fitted curve.

SMILES	Potency	activity change, negative = growth inhibition
CC(=O)Nc1ccc(NC(=O)CSc2nnnn2-c2ccc(F)cc2)cc1	inactive	
CCCS(=O)(=O)c1nc(S(=O)(=O)c2ccc(C)cc2)c(N2CCOCC2)s1	inconclusive [inhibitor, full curve, poor fit]	
Cc1ccc(C(=O)Nc2cnn(-c3ccc(C(=O)NCc4nc(-c5ccccc5)n[nH]4)cc3)c2)c(C)c1	active: 0.92 µM	
O=[N+]([O-])c1cc(-c2nc(-c3ccccc3)no2)ccc1NCC1CCCO1 (configuration not stated)	inconclusive [inhibitor, full curve]	
C=CCOc1cccc(C2/C(=C(/O)c3ccc(C)cc3)C(=O)C(=O)N2CCN2CCOCC2)c1 (configuration not stated)		inconclusive: -30.2% [inhibitor]
Cc1cccc(C(=O)Nc2c3c(nn2-c2ccc(Cl)cc2)CS(=O)(=O)C3)c1	inactive	
Cc1cc(OCc2ccc(C(=O)n3cccn3)o2)ccc1Cl	inconclusive [inhibitor, single point]	
C=CCn1c(CCc2cc(C(C)(C)C)c(O)c(C(C)(C)C)c2)n[nH]c1=S	inconclusive [inhibitor, single point]	
O=C(NCC1CCN(S(=O)(=O)c2ccccc2)CC1)Nc1ccc(F)cc1	inconclusive [inhibitor, partial curve, poor fit]	
COCCOC(=O)c1[nH]c2c(c1C)C(=O)CC(c1ccc(OC)cc1)C2 (configuration not stated)	inconclusive [inhibitor, partial curve]	
Cn1c(=O)c2c(nc(-n3ccnc3)n2Cc2ccc(Cl)cc2Cl)n(C)c1=O		inconclusive: -33% [inhibitor]
CCOC(=O)c1c(-c2ccccc2)oc2ccc(NS(=O)(=O)c3ccc(OC)cc3)cc12	active: 4.61 µM	
CC1CCN(C(=O)/C(=C\c2ccccc2F)NC(=O)c2ccccc2)CC1	inactive	
CCCN1CCN(CCCNC(=O)CCCn2nc(C)c3sc4ccccc4c3c2=O)CC1	inactive	
CCN(CC)C(=O)Cn1cc(C(=O)C(=O)N2CCN(C)CC2)c2ccccc21	inactive	
COc1ccc(-c2noc(N3CCC(C(=O)NCCCN4CC(C)CC(C)C4)CC3)n2)cc1 (configuration not stated)	active: 3.66 µM	
COc1ccccc1N(C)S(=O)(=O)c1ccc(Cl)c(C(=O)Nc2ccncc2)c1	inconclusive [inhibitor, single point]	
CCOC(=O)c1[nH]c(C)c(C(=O)OCC)c1C	inactive	
COc1cccc(C#Cc2c(CO)[nH]c3ccccc23)c1	active: 18.4 µM	
COC(=O)c1c(N)[nH]c(C(=O)c2ccccc2)c1-c1ccc(Br)cc1	active: 16.4 µM	
COc1cc(/C=C2\SC(=O)N(CC(=O)Nc3ccccc3F)C2=O)cc(Cl)c1O	active: 18.4 µM	
CC(C)(C)CN1CCNC[C@H]1Cc1cccc2ccccc12	inconclusive [inhibitor, single point]	
COc1ccc(/C=C2\N=C(C)OC2=O)cc1OC	active: 10.3 µM	
CN1CCN(c2cc(-c3ccoc3)ncn2)CC1	inactive	
Cc1ccc(NC(=O)COC(=O)c2oc3ccccc3c2C)cc1S(=O)(=O)N1CCOCC1	inconclusive [inhibitor, single point]	
Cn1cc(/C=N/NC(N)=S)c2ccccc21	active: 13 µM	

SMILES	Potency	activity change, negative = growth inhibition
CC(C)CNC(=O)COC(=O)Cc1ccc(Cl)cc1	inactive	
O=S(=O)(Cc1noc(-c2ccc(Cl)cc2)n1)Cc1ccco1	inconclusive [inhibitor, full curve, poor fit]	
Cc1c(S(=O)(=O)N2CC(C)CC(C)C2)c(=O)n(C)c(=O)n1C (configuration not stated)	inactive	
Cc1ccc(C(=O)OC/C(O)=C(\C#N)c2nc3ccccc3[nH]2)cc1S(=O)(=O)N1CCOCC1	active: 5.8 µM	
CN(C)c1ccc(/C=C/c2ccnc3ccccc23)cc1	inconclusive [inhibitor, single point]	
CCCNC(=O)c1onc(CSc2ccc(Cl)cc2)c1C(=O)NCCC(C)C	inconclusive [inhibitor, single point]	
COC(=O)CCCn1nc(NC(=O)c2ccco2)cc1C	inactive	
CCCCNS(=O)(=O)c1ccc2c(c1)oc(=O)n2CC(=O)OCC	inactive	
CCN(C(=O)CSc1ncccn1)c1cccc2ccccc12	inconclusive [inhibitor, single point]	
CCc1ccc(OCC(=O)N/N=C/c2ccc(OS(=O)(=O)c3ccc(C)cc3)c(OC)c2)cc1	inactive	
COc1cccc(/C=N/NC(=O)CCc2c(C)n[nH]c2C)c1O	inconclusive [inhibitor, single point]	
COc1ccc(C(=O)/C=C/c2ccccc2C(F)(F)F)cc1	active: 29.1 µM	
COc1cc2c(=O)n(-c3ccc(C)cc3)c(=O)n(CC(=O)c3ccc4c(c3)OCO4)c2cc1OC		inconclusive: -32.2% [inhibitor]
CNC(=O)C(NC(=O)CNC(=O)c1ccc(Cl)cc1)C(C)(C)C (configuration not stated)	inactive	
Cc1ccc(-c2cc(C(=O)NC(C)c3ccccc3)c3ccccc3n2)cc1C (configuration not stated)	inconclusive [inhibitor, single point]	
CC1C(=O)Nc2ccccc2N1C(=O)C1CC1 (configuration not stated)	inactive	
Cc1ccc(S(=O)(=O)NCCC(=O)Nc2ccc(Cl)c(Cl)c2)cc1C	inactive	
COc1ccc(C(=O)C2CCCN(Cc3cccn3-c3ccccn3)C2)c(OC)c1 (configuration not stated)	active: 8.2 µM	
CCCS(=O)(=O)c1ncc(Cl)c(C(=O)N2CCN(c3ccc(OC)cc3)CC2)n1	active: 2.06 µM	
Cc1ccc(OC(=O)CCC(=O)Nc2ccc(C(N)=O)cc2)cc1	inactive	
CC(=O)N1CCSc2ccc(S(=O)(=O)NCCc3ccc(C)cc3)cc21	active: 23.1 µM	
CCNc1ncc2nc(-c3cccs3)c(=O)n(C)c2n1	inactive	
CC(=O)Nc1ccccc1-c1nc2ccccc2n(CC(=O)c2ccc(C)c(C)c2)c1=O	active: 20.6 µM	
CCOC(=O)c1c(NC(=O)c2cccs2)sc2c1CC(C)(C)OC2	inconclusive [inhibitor, single point]	
CC1CCC(N2CCN(c3ncccn3)CC2)CC1 (configuration not stated)	inactive	
O=C(CSc1nccn1-c1ccccc1)c1ccc(Cl)cc1	inactive	

SMILES	Potency	activity change, negative = growth inhibition
O=C(CNC(=O)c1ccco1)Nc1ccc(F)cc1	inconclusive [inhibitor, single point]	
O=C(CN1CCCc2ccccc21)Nc1cc(S(=O)(=O)N2CCCC2)ccc1Cl	active: 18.4 µM	
COc1ccccc1Oc1ccc(S(=O)(=O)NCc2ccccn2)cc1	inconclusive [inhibitor, single point]	
COc1ccc(C(N)CCc2ccc(C)o2)cc1 (configuration not stated)	inconclusive [inhibitor, single point]	
CC(=O)c1nnn(-c2ccc([N+](=O)[O-])cc2)c1C	inactive	
Cn1cccc1/C=C1\SC(=S)N(Nc2ccccc2)C1=O	inconclusive [inhibitor, single point]	
CCN1CCc2nc3sc(C(=O)Nc4cccnc4Cl)c(N)c3cc2C1	inconclusive [inhibitor, single point]	
CS(=O)(=O)N(CC(=O)Nc1ccc2c(c1)OCCO2)Cc1ccc(Cl)cc1	inconclusive [inhibitor, partial curve]	
COc1ccc(NC(=O)CSc2nc3ncccc3[nH]2)c(OC)c1	inconclusive [inhibitor, single point]	
COc1ccc(-c2cc(C(=O)Oc3cccc(C)c3)c3ccccc3n2)cc1	inactive	
Cc1sc2ncnc(N3CCC(C(=O)Nc4cc(S(C)(=O)=O)ccc4Cl)CC3)c2c1C	active: 13 µM	
Cc1ccc(CCNC(=O)C2CCN(c3nnc(C)c4c(C)n(-c5ccccc5)nc34)CC2)cc1	inconclusive [inhibitor, single point]	
CCOC(=O)N1CCC(n2c(SCC(=O)NCc3ccco3)nc3ccsc3c2=O)CC1	active: 23.1 µM	
CCCCCCCCOC(=O)c1cc([N+](=O)[O-])c(Sc2ncnc3nc[nH]c23)c([N+](=O)[O-])c1	active: 2.59 µM	
Cc1cc(OC(C)C(=O)N(Cc2ccco2)Cc2ccccc2F)cc(C)c1Cl (configuration not stated)	active: 20.6 µM	
COC(=O)c1ccc(CNC(=O)N2CCN(S(=O)(=O)c3ccc(C)cc3)CC2)cc1	inconclusive [inhibitor, partial curve]	
Cc1c(C(=O)N2CCN(c3ccccn3)CC2)sc2ncnc(N3CCOCC3)c12	inactive	
CN(C)c1ncc2ncc(=O)n(C3CC3)c2n1	inconclusive [inhibitor, single point]	
Cc1ccc(NC(=O)NCCCN2CCCC2=O)cc1C	inactive	
Cc1ccc(NC(=O)CSc2nc3ccccc3c3nc(CCn4cncc4C)nn23)cc1F	inconclusive [inhibitor, single point]	
Cc1ccc(-n2nc3c(=O)n(CCCC(=O)NCCc4ccccc4C)nc(C)c3c2C)cc1	inconclusive [inhibitor, single point]	
CCOc1cccc2sc(N(Cc3cccnc3)C(=O)C3CCCCC3)nc12	inconclusive [inhibitor, single point]	
Cc1ccc(NC(=O)CSCc2cnn(-c3ccccc3)c2-n2cccc2)c(C)c1	inconclusive [inhibitor, single point]	
CCCNC(=O)C1(C)CCCN(Cc2ccccc2Cl)C1 (configuration not stated)	inconclusive [inhibitor, single point]	
COC(=O)[C@]1(Cc2ccccc2)N[C@H](CN(C)S(=O)(=O)c2ccc(C)cc2)[C@@H]2C(=O)N(Cc3ccccc3)C(=O)[C@@H]21	inconclusive [inhibitor, full curve, poor fit]	
